From PubChem BioAssay (Tox21)
Several values for one entry are separate records, joined by “and”; a condition that tells them apart may be missing. Equal values may be shown once. The shares of active, inactive and inconclusive entries below differ from those in the screen. For some assays here: Potencies beside an inconclusive call are fits to weak or partial responses and may not hold up. Activity calls are given as the source filed them. Unless noted, calls come from the whole dose curve; as a rule, active = well fitted curve in the direction sought with a large enough effect in the repeat runs; inconclusive = weak or mixed curves; inactive = no such curve, though single readings can be large; an effect the other way counts as inactive or inconclusive.

Columns and labels:
[1] = target: Luciferin 4-monooxygenase (Photinus pyralis) (UniProt P08659); assay: qHTS assay to identify small molecule inhibitors of firefly luciferase (AID 1224835); note: nearly all actives have a fitted effect of over 25% in size
UniProt P08659, sequence (P08659 whole entry, looked up): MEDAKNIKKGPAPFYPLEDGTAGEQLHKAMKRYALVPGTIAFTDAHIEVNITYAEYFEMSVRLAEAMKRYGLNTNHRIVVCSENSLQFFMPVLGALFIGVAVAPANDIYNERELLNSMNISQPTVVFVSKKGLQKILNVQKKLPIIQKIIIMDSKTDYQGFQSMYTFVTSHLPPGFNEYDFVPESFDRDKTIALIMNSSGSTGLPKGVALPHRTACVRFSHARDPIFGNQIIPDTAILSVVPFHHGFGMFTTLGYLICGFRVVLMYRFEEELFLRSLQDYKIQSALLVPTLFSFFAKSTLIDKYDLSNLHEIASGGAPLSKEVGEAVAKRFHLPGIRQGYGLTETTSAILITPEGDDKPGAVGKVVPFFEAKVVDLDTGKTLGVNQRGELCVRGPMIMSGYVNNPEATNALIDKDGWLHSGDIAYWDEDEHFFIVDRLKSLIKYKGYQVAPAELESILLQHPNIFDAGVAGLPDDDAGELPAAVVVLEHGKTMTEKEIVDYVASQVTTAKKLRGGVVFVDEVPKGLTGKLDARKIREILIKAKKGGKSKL
Method in brief: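 Inhibition of purified Photinus luciferase is measured by luminescence. Substrate levels (D-luciferin, ATP) sit at their KM values. Each compound is tested in a concentration series.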

[2] = qHTS assay to identify small molecule agonists of the hypoxia (HIF-1) signaling pathway (AID 1224846; active = well fitted activation curve with a large enough effect in the signal ratio in the repeat runs, not every such curve was filed as active; inconclusive = weak or mixed curves; the % refers to the signal ratio; for activation: % is set by controls: 0 for no effect and ±100 for the full control effect); details: HRE-bla ME-180 cells, beta-lactamase ratio, 17 h; activation: at 76.8 µM (top of the series) unless noted
Method in brief: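 Measured by blue/green FRET after loading CCF4-AM: beta-lactamase expressed from a hypoxia response element in ME-180 cells. Test agents were delivered in DMSO and left 17 hrs; cells had been plated 5 hrs earlier in low-serum (0.5% dialyzed FBS) medium.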

[3] = qHTS assay to identify small molecule agonists of H2AX (AID 1224845; active = well fitted activation curve with a large enough effect in the signal ratio in the repeat runs, not every such curve was filed as active; inconclusive = weak or mixed curves; the % refers to the signal ratio; for activation (H2AX phosphorylation): % is set by controls: 0 for no effect and ±100 for the full control effect); details: CHO-K1 phospho-H2AX Ser139 HTRF, 3 h; activation (H2AX phosphorylation): at 154 µM (top of the series) unless noted
Method in brief: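 Phospho-H2AX Ser139 measured by HTRF (ex 320 nm; em 665 and 620 nm) after 24 hr antibody incubation. Compounds, 15 concentrations, 0.76% DMSO, were applied to CHO-K1 cells for 3hr at 37C before lysis.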

[4] = A CellTox Green Cytotoxicity Assay to monitor cytotoxicity in HEK293 cells - 0 hour (AID 1224869); note: nearly all actives have a fitted effect of over 50% in size
Method in brief: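 Each value comes from one timepoint of a single continuous run in which HEK293 cells with CellTox Green were exposed to compound for up to 40 h at 37 C, dye fluorescence rising with cell death.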

[5] = qHTS assay to identify small molecule agonists of the hypoxia (HIF-1) signaling pathway - cell viability counter screen (AID 1224844; calls by dose curve; note: nearly all actives have a fitted effect of over 50% in size)
Method in brief: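 Luminescent ATP content (CellTiter-Glo, 30 min, room temperature) served as the viability measure in HRE-bla ME-180 cells exposed to compounds for 17 hrs in low-serum medium (0.5% dialyzed FBS).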

[6] = qHTS assay to identify small molecule agonists of H2AX - cell viability counter screen (AID 1224847; calls by dose curve; note: nearly all actives have a fitted effect of over 30% in size)
Method in brief: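 Cytotoxicity counter screen in wild-type CHO-K1 cells: a 3 hr compound treatment at 37C across 15 concentrations, followed by CellTiter-Glo luminescence to gauge viable cells.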

[7] = qHTS RealTime-Glo MT Cell Viability Assay in HEK293 cells - 32 hour (AID 1224868); note: nearly all actives have a fitted effect of over 50% in size
Method in brief: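 Homogeneous bioluminescent viability format in HEK293 cells (600 cells/well). Following 5 h at 37 C/5% CO2, 23 nL compound was pintooled; the signal was measured repeatedly during 40 h incubation.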

[8] = qHTS assay to identify small molecule agonists of the constitutive androstane receptor (CAR) signaling pathway - cell viability counter screen (AID 1224836); note: nearly all actives have a fitted effect of over 45% in size
Method in brief: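 Cells were seeded and incubated 4 hrs. Compounds were added across 15 concentrations together with PK11195 at 0.75 uM final. Plates were incubated 23 hrs at 37 C. CellTiter-Fluor was added and fluorescence measured.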

[9] = qHTS assay to identify small molecule antagonists of the constitutive androstane receptor (CAR) signaling pathway - cell viability counter screen (AID 1224837); note: nearly all actives have a fitted effect of over 45% in size
Method in brief: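 Fluorescence from CellTiter-Fluor served as the viability signal. Human hepatoma HepG2 cells stably bearing hCAR and CYP2B6-2.2kb received compound plus CITCO (50 nM final) for 23 hr.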

[10] = qHTS assay to identify small molecule antagonists of the estrogen related receptor (ERR) signaling pathway from Tox21 library (AID 1224848); note: nearly all actives have a fitted effect of over 50% in size
Method in brief: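 Antagonist-mode screen of the Tox21 10K library in an NTP-provided ERR reporter cell line; 18 h compound exposure at 37 C, luminescence measured with ONE-Glo.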
Potency is the fitted concentration of half-maximal effect; tags give direction and shape of the fitted curve or compound fluorescence and quenching.

CCCOC(=O)c1ccc(C(=O)OCCC)nc1
Potency [1]: active: 35.6 µM
Potency [2]: inactive

Cc1ccc(C=O)s1
Potency [1]: inactive
activation (H2AX phosphorylation) [3]: inconclusive: 6.81%
Potency [4]: active: 24.5 µM

c1ccc2c(c1)Oc1ccccc1S2
Potency [1]: inconclusive: 31.7 µM [inhibitor, partial curve]
Potency [5]: inconclusive: 55.8 µM [cytotoxic, partial curve, poor fit]
Potency [6]: inconclusive: 102 µM [cytotoxic, single point]

CCCCCc1ccc(N)cc1
Potency [1]: inconclusive: 79.6 µM [inhibitor, single point]
Potency [6]: inconclusive: 113 µM [cytotoxic, partial curve, poor fit]

Cc1ccc(-c2ccccc2)cc1
Potency [1]: inconclusive: 31.7 µM [inhibitor, full curve]
Potency [7]: inconclusive: 34.7 µM [cytotoxic, partial curve, poor fit]

CC(=O)c1ccc2c(c1)Cc1ccccc1-2
Potency [1]: active: 25.2 µM
Potency [6]: inconclusive: 101 µM [cytotoxic, single point]

c1ccc2c(c1)ccc1cc3c(ccc4ccccc43)cc12
Potency [1]: active: 788 nM and active: 250 nM
Potency [3]: inconclusive: 49.9 µM [fluorescent, partial curve] and inconclusive: 50 µM [fluorescent]

C[C@H](CS)C(=O)N1CCC[C@H]1C(=O)O
Potency [8]: inactive

Nc1c(NC/C=C\COc2cc(CN3CCCCC3)ccn2)c(=O)c1=O
Potency [8]: inconclusive: 9.2 µM [cytotoxic, partial curve]
Potency [9]: inconclusive: 10.3 µM [cytotoxic]

COc1ccccc1Oc1c(NS(=O)(=O)c2ccc(C(C)(C)C)cc2)nc(-c2ncccn2)nc1OCCO
Potency [1]: inactive
Potency [6]: inconclusive: 55.2 µM [rising, single point]
Potency [10]: inconclusive: 26.6 µM [inhibitor]

O=[N+]([O-])c1ccc2nc[nH]c2c1
Potency [8]: inactive
Potency [9]: inactive

CCc1ccc(C(=O)C(C)CN2CCCCC2)cc1 (configuration not stated)
Potency [1]: inactive
Potency [2]: inactive

Oc1cccc2cc3cccc(O)c3c(O)c12
Potency [1]: active: 71.3 µM
Potency [5]: inconclusive: 0.0311 µM [cytotoxic, full curve, poor fit]
Potency [2]: inconclusive: 12.4 µM [falling, full curve]

COc1ccc(N=[N+]([O-])c2ccc(OC)cc2)cc1
Potency [1]: active: 0.222 µM
Potency [3]: inactive
Potency [6]: inconclusive: 62.9 µM [cytotoxic, partial curve, poor fit]
